# This is one part of the list.
# System: PfSIP2 AP2 domain 1 (GST-tagged)
# Test: gcPBM binding intensity (ln(normalized median fluorescence intensity)); higher = stronger DNA binding
# Procedure, shortened: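 An Agilent 4 × 180k array of primer-extended double-stranded 36-bp intergenic genomic probes, with negative controls, was incubated for 1 h with GST-tagged P. falciparum DNA-binding domains expressed in E. coli. Alexa488 anti-GST antibody detected bound protein, scanned at 488 nm. Binding intensity is the highest Masliner-normalised natural-log median intensity across replicate spots of either probe orientation.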
row,Sequence,gcPBM binding intensity (ln)
1,TATATATGTATCATTACACACATGTATACTTATTTG [CACACA_site4138],6.9
2,TGTATAAATATATATACACACATATTTATATATATA [CACACA_site755],7.74
3,TACATTTGTATAAATAGTACGCGAAAACAAAAAAAA [XGTACX_site6246],7
4,ATATATGTGCCCATATATATATATATAAATATATGT [GTGCAC_negctrl_site226],7.52
5,TAAAAAAAAACAGAAACACACATTATTCATATATAT [CACACA_site2049],6.86
6,AAAATATTTATGTATGCATGTTGTAATATTTCTTTA [TGCATGCA_site296],7.04
7,ATTTCCCCTTTTTATTGTACATTTTTATTTGTTACT [XGTACX_site4845],7.17
8,TATGCTATATATTTAGTGCATATATATAACTTTTAT [GTGCAC_site9902],8.56
9,AAAATTATATATTTTAGTACATAAAATATTGACATA [XGTACX_site2581],7.04
10,ATGTAATGTTATGTTATGTTTTTTTTTTTTTTGTGT [CACACA_negctrl_site1264],7.03
11,TTTTAAACAGGACACACACACATATATATATATATA [CACACA_site4664],9.44
12,GGAATATGTATATTTTGTACGTATACATTTTTTGGG [XGTACX_site7681],7.02
13,GTTATTGTAAAAAGATTACACACGTTCTATATACTT [CACACA_site2473],7.15
14,TTTATACAAAAAAACAAAATCAAACAAAAAAAAAAA [CACACA_negctrl_site252],6.96
15,GATATATTTTATATATGTACATACAGTGGTAAATAT [XGTACX_site1324],7.1
16,TTTTCTACATCTTGTTGTACGAAAAATAAAAAAAAT [XGTACX_site4620],7.25
17,AGTACGTAAATTATAATACACACTATAGGATATTCT [CACACA_site2559],7.06
18,GTGCGTGCGTGTACTTAACACACATAATATGTATTT [CACACA_site8336],8.89
19,TAATTCCATAAGTAAACACACAAATGCCAAAATTTT [CACACA_site3205],6.86
20,ATATATAAAAATATTTGTACATATAGTTATATTTAT [XGTACX_site6114],7.03
21,TTAAGCCGCAATATGGGTACATAGGAAGAAGGGGAA [XGTACX_site8397],7.26
22,TTTCTTTTTCTAGTTATTTTTACTTATCCCTAATTT [TGCATGCA_negctrl_site460],7.09
23,TTATAATTAAGATATAATCAATAATAACAAATGAAC [CACACA_negctrl_site1690],7.29
24,TTCTTTGCTTCTGTTTCACACATTTTTAAAATAAGC [CACACA_site4741],7.72
25,TTAAAGGGAATGTATACACACGTTTCTCTATGTTAT [CACACA_site4793],6.63
26,CAAAAAAGGTCCCGGAGTACATATATAATTTTTTTT [XGTACX_site458],6.78
27,TATATATTGTTATATACACACATGTATATAAAAAAT [CACACA_site3221],6.85
28,GAGATGACATTACACAGTACCCAGGAAATCTACGGA [XGTACX_site4931],6.74

row,Sequence,gcPBM binding intensity (ln)
1,ATTGTCCTAAATACTACAAAGTAGATCTTTAATATT [CACACA_negctrl_site1795],6.94
2,AATGTCCTTATTTGCACACACACATATAAGAAATTT [CACACA_site3186],7.46
3,TATAATAAATCATATGCATGTTGAAAAAAAAAAAAA [TGCATGCA_site923],7.09
4,ATTTGAGAGTTAACAAAATATTTGGCCATCTTTTAT [XGTACX_negctrl_site447],6.68
5,AACTCATAGCGGTGTGCACACAAAAAATTAAAAAAA [CACACA_site3033],8.94
6,TCATAAATGAAACACACACACACATCTGGATACCCC [CACACA_site3332],7.25
7,ATTATATATATAAAGTGTACAAAAAAAAAAAAAAAA [XGTACX_site3134],7.19
8,ATATGTAGTTTTTACCTAATAAAAAAAAAAAAAAAA [CACACA_negctrl_site672],7
9,TAAACATATAAAAAGGGTACACATTAAACATAGTAT [XGTACX_site7096],7.16
10,AAATCATTCCTTTATTCACACAATATCTGTATTTAT [CACACA_site4407],6.89
11,TATAAAATAAAAATTATATATTTTAAATGGATACAA [TGCATGCA_negctrl_site284],7.01
12,AAAACAAATTAAAATCGTACAATTATAATGTTAATG [XGTACX_site180],7
13,ATAGCTAAGATAGCTTGTACATATATTTACATATAT [XGTACX_site3694],6.8
14,ATTTAAATGAAAAAATGTACAAAAAGATTTAAACTC [XGTACX_site1489],7.23
15,ATGCACATTTATAAAAGTACATGTATGTAATATGTT [XGTACX_site830],7.2
16,ATATTTTGTTATGTAGATGTTGGTAGGAATTTTGGT [CACACA_negctrl_site1104],7.21
17,AATAAATAAATAAATAAAACAAAGGGATTACATACA [TGCATGCA_negctrl_site513],7.01
18,CACAACATATATATATATATATATATATATATGTGT [CACACA_negctrl_site28],8.7
19,TTAAAAAAATATTGAAGTACACACATTATAAACTTT [XGTACX_site3548],7
20,TACTTTTTAGGAAAGTGTACAAGCATATAAGGAATA [XGTACX_site2834],7.29
21,ATATAATAAAATTAATGTACATATATGTATTATATA [XGTACX_site3283],6.86
22,TTTCATATATATGAAACACACAAAGGAAAAAAAATT [CACACA_site4144],7.23
23,AACATAATCTCATATACACACAAAAATATTGAAATA [CACACA_site7085],7.06
24,AAAAAAAAAAAACACACACACATAGACCTCCAATAG [CACACA_site3562],7
25,ACAAGTTTATTTGTTGCACACATATAAGTAGAGAAA [CACACA_site8994],7.69
26,GCTCATATGACAACAACACACAAAAAAATAAAATGA [CACACA_site714],7.16
27,TAATAATATATTTGTAGTACACAATTTTTTATAACT [XGTACX_site3951],7.19

# From the supplement of paper PMC11417369
